Measurements: the BET-seq Pho4 binding data (Le et al. 2018)
The other results are listed elsewhere or left out. These are noisy estimates, calculated here from bound and input reads.

Biological target: T1, Pho4 (S. cerevisiae) (UniProt P07270)
T1 sequence: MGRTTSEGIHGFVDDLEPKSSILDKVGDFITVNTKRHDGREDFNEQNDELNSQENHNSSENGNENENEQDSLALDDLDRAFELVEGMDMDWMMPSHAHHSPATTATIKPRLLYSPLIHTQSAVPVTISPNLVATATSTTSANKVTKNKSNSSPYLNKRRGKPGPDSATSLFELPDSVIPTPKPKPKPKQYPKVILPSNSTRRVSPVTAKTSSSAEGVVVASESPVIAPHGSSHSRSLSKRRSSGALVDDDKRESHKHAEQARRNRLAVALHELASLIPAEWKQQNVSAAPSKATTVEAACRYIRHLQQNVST
Assay: relative binding free energy (BET-seq); higher = weaker binding
Details: reference: library average

Sequence	relative binding free energy [kcal/mol]
ATGCGCACGTGTGTTT	-0.03
TGTAGCACGTGGCAGT	-0.21
TTGTACACGTGGAGCT	0
GTATGCACGTGAATGG	0.17
GTTTACACGTGCTTAA	0.1
TTAAACACGTGTTTGT	-0.06
TTACACACGTGTTTTG	0.04
ATTGCCACGTGGGTTT	-0.3
GCGAGCACGTGTGTGT	0.04
AAGGGCACGTGAATTT	0.11
ATGGACACGTGTGAAT	0.1
TATGGCACGTGGTACG	-0.2
TGGTTCACGTGTAGGA	0.26
ACTGGCACGTGGTCGG	-0.36
TGTAACACGTGAAGGG	0.36
GTAGGCACGTGGGGGC	-0.23
GGGTACACGTGATGCG	0.12
ATTTGCACGTGATAGT	0.12
CGGGTCACGTGTGGAC	0.29
GTAGACACGTGAGCGG	0.18
ACGTACACGTGTTGTG	0.06
TTGGGCACGTGCGTGC	-0.2
ATGTTCACGTGGAGCT	0.19
ATATGCACGTGAGCGT	-0.06
TTCGGCACGTGTATTG	-0.15

Sequence	relative binding free energy [kcal/mol]
ATTATCACGTGTTTTT	0.23
GGGAGCACGTGAGTCG	0.21
TATATCACGTGATTGC	0.16
GGATGCACGTGGCGCT	0.02
GCTGGCACGTGAGCGG	0.21
TAGGGCACGTGGAATG	-0.09
GGCGGCACGTGTAGTT	-0.02
CAGGTCACGTGTGTGT	0.12
GGGGGCACGTGTTCGC	-0.08
TGATTCACGTGGGGGC	0.24
ATTTACACGTGTCGTA	0.01
TGCGTCACGTGAAGGG	0.22
CATTGCACGTGTGGAT	0.01
GTAGCCACGTGGGTAT	-0.1
TGGATCACGTGTAGAA	0.3
ATGTGCACGTGTAGAT	0
TGTACCACGTGTGGAA	0.16
TGTGTCACGTGCAGTT	0.06
GATGGCACGTGGTATA	-0.11
AGGGGCACGTGGTAAG	-0.11
GTATTCACGTGTAGAG	0.19
GGTTTCACGTGATATT	0.41
GGATTCACGTGAAAGG	0.27
TTTGGCACGTGTCGAA	-0.12
ATCTGCACGTGTTAAT	0

Sequence	relative binding free energy [kcal/mol]
TTCGTCACGTGTGAAT	0.21
GTCGGCACGTGTGGGT	-0.06
TTATCCACGTGGGGGA	-0.15
TTAGGCACGTGGAGTC	-0.08
CTAGTCACGTGATAGT	0.14
TAGGCCACGTGTGGTA	-0.17
TGCTCCACGTGGAGGT	0.09
GGTGTCACGTGGAGCT	0.14
ATAAGCACGTGTTAGT	-0.1
TTGTTCACGTGTTACA	0.27
GGAAGCACGTGATGCG	0.05
GGGGTCACGTGTCGAG	0.14
AGGATCACGTGAGCGT	0.3
TAGGTCACGTGGATTG	0.24
TGTATCACGTGAGACG	0.31
GGTTCCACGTGGGGTA	-0.16
TGATGCACGTGATAGG	0.04
ACTTTCACGTGTTGGT	0.08
TTTGCCACGTGTTTGA	-0.01
CAGGGCACGTGGTATT	-0.05
TAAGTCACGTGTAAGT	0.06
GCATTCACGTGATGAT	0.37
GGAAGCACGTGGGTTG	-0.04
TGGTGCACGTGCTATA	-0.12
TTTATCACGTGCGTTA	0.1

Sequence	relative binding free energy [kcal/mol]
ATTTACACGTGAGTCT	0.21
AGGGTCACGTGGGGCG	0.01
GGTTCCACGTGGATTG	0.2
GACTTCACGTGGGGGG	0.18
TGCTCCACGTGTTGGG	0.02
TGAATCACGTGAAGAG	0.35
TTATTCACGTGACGAG	0.35
GGGTGCACGTGTCGTA	0.11
TTATGCACGTGTACAG	0.05
ATGTACACGTGCATGT	-0.01
ATGTTCACGTGAGAAA	0.34
TTTGTCACGTGTGTAG	0.12
AGGCGCACGTGGTGGG	-0.06
GTCAGCACGTGTGGTG	-0.03
AGTTGCACGTGTTACT	-0.01
TAAAGCACGTGTAAGG	0.1
AAGGTCACGTGTGTTC	0.13
CTATGCACGTGGTGTA	-0.28
TAAAACACGTGGATTT	0.06
TAAGGCACGTGTGGAC	0.13
GTGTACACGTGTATTG	0.14
AGGTGCACGTGAGGGG	0.24
GATGTCACGTGGTGGG	0.2
GGCAGCACGTGTATTG	0.13
GGCGTCACGTGGCTTT	0.07

Sequence	relative binding free energy [kcal/mol]
CATTACACGTGGTGTG	0.1
TAGGACACGTGTGATT	0.22
TTGAGCACGTGTATAT	0.03
TGGGCCACGTGGTCAT	-0.2
TATGGCACGTGGTGGA	0
TTTGGCACGTGGCGGC	-0.27
ATTGTCACGTGCTTGC	0.02
GTAGTCACGTGGACAG	0.15
CTAGTCACGTGAGGTG	0.21
CGTAACACGTGTGGAG	-0.04
TTAGCCACGTGGTTGA	-0.22
ATGGTCACGTGTAAGA	0.22
CAAATCACGTGATGGG	0.27
TTTGTCACGTGAGCAG	0.24
GGGGGCACGTGTTTGT	-0.09
AGGAGCACGTGTAATG	0.1
TGTGCCACGTGCATGT	-0.15
GTGGCCACGTGGTTAT	0.01
TTCAGCACGTGTTTTG	-0.01
AAGGCCACGTGGTTGT	-0.16
TGGTCCACGTGACGGG	0.19
TGAAGCACGTGTTATT	-0.14
GGCCTCACGTGGGTTG	0.15
GCGAACACGTGGTTGG	0.05
GTGGACACGTGATGAG	0.22

Sequence	relative binding free energy [kcal/mol]
GTGTGCACGTGGCGGC	-0.02
TGAATCACGTGTGTTA	0.14
TATGTCACGTGCAGTG	0.06
ACGATCACGTGTTGGG	0.13
CTGTACACGTGTATTT	0.12
ATTATCACGTGCGTAT	0
GAGTTCACGTGGTAGC	0.32
AAATGCACGTGTAGAG	0.19
TGGACCACGTGGGTGC	-0.26
TTAGACACGTGAATTG	0.26
TGTGGCACGTGTTCCT	-0.1
TATCTCACGTGTAGTA	0.18
CGGGGCACGTGTTTGG	-0.1
ATGTGCACGTGTGCAT	0.02
TTAAGCACGTGTCGGT	-0.01
TAGGTCACGTGATTAT	0.25
ATGATCACGTGGAGGG	0.11
GGGGGCACGTGGTTCG	-0.12
GGGAACACGTGGAGTG	0.03
GAGTGCACGTGGAGGG	-0.02
TCGGACACGTGTTGGG	0.14
